# Experimental data from the supplement of paper PMC10338343.
# ± gives the standard deviation. The entries are a selection whose mix differs from that of the whole data set.
# Tested on: MIWI (PIWIL1) piRISC loaded with piRNA #1 (30 nt)
# Assay: pre-steady-state target cleavage rate (min^-1); MIWI and MILI are mouse PIWI proteins and EfPiwi is from a freshwater sponge; tags in brackets are library labels; higher = faster piRNA-guided slicing of the target
# Details: guide: piRNA #1 5'p-UGAGGUAGUAGGUUGUAUAGUAUCCAGAGG; auxiliary factor: 500 nM mouse GTSF1
# Summary of the method: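 Sequencing of uncleaved targets, normalised to depth and to weakly complementary targets, was the readout of this Cleave-'n-Seq assay. A transcribed, DNA-blocked target RNA library (0.1 nM) was mixed with 1 nM active affinity-purified piRISC carrying one synthetic guide, with or without 500 nM GTSF1 partner protein, in HEPES–potassium acetate buffer at 33 °C for 0–8 or 0–960 min. Three trials were pooled, k3 was capped at 0.0001 min^-1, and a burst-and-steady-state fit gave the pre-steady-state cleavage rate.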
row,Sequence,pre-steady-state target cleavage rate
1,GGAGACCUAACUAUACUACCUACUACCACA,0.052 ± 0.012
2,GGAGACCAUACUUUAGAACCUACUACCUCA,0.678 ± 0.052
3,GGAGUGGAUACUAUACAAGCUACUAGCUCA,0.173 ± 0.025
4,CCUCUGCAUACUAUACAACCUACUAGCUCA,1.23 ± 0.1
5,GGUCUGGAAUGUAUACAACCUACUACCUCA,0.592 ± 0.046
6,GGUCUGGAAACUAUACUACCUACUACCUCA,1.32 ± 0.082
7,GGAGUGGAUUCUAUACAACCUACUACCACA,0.764 ± 0.048
8,GGUCUGGAUACAUAUACAACCUACUACCUCA,1.73 ± 0.1
9,GGAGACCUAUCUAUACAAGCUACUUCCUCA,0.155 ± 0.02
10,GGAGACCAAACUAAACAACCUACUACCUCA,0.438 ± 0.081
11,GGAGACCUUACUAUAGAACCUACUACGUCA,0.327 ± 0.046
12,CCUCUGGAUACUAUACAACCUACUACAUCA,1.5 ± 0.074
13,GGAGACCAUACUAUACAACCUACUACGCUCA,1.43 ± 0.074
14,GGAGACCUAUGUAUGACAACCUACUACCUCA,0.00373 ± 0.0037
15,GGAGACGAUACUAUCACAACCUACUACCUCA,1.54 ± 0.12
16,GGUCUGGAUACUAUACAAGCUACUACCACA,1.42 ± 0.065
17,CUCUCUGGAUACUAUACAACCUACUACCUCA,2.1 ± 0.13
18,GGAGACCUUACUAUACAACCUACUACCAGA,0.712 ± 0.058
19,GGUCUGGAUACUAUACAAGGUACUACCUCA,0.381 ± 0.03
20,GCUCUGGAUACUAUUCAACCUACUACGUCA,1.33 ± 0.087

row,Sequence,pre-steady-state target cleavage rate
1,GGAGACCUUACUAUACACCCUACUACCUCA,1.05 ± 0.063
2,GGAGACGAUACUAUACAACCAACUACCACA,0.147 ± 0.013
3,GGAGAGGAUACUAUACAACCUACUAGCCUCA,0.675 ± 0.078
4,GGAGACGAUACUAUACAUCCUACUAGCUCA,0.608 ± 0.046
5,GGACUGGAUACUAUACAACCAAGUACCUCA,0.0216 ± 0.004
6,GGAGAGGAUACAUAACAACCUACUACCUCA,0.7 ± 0.065
7,GGAGACGAUACAAUACAAGCUACUACCUCA,0.774 ± 0.057
8,GGAGACCAUACCAUACAACCUACUACCUCA,1.14 ± 0.11
9,CCUGUGGAUACUAUACAACCUUCUACCUCA,0.724 ± 0.032
10,GGAGAGGAUUGUAUACAACCUACUACCUCA,0.644 ± 0.046
11,GGACUGGAUACUAUACAACCUGCUACCUCA,0.952 ± 0.063
12,GGAGACGAUACUAUACAUCCUUCUACCUCA,0.242 ± 0.022
13,GGACAGGAUACAAUACAACCUACUACCUCA,1.59 ± 0.092
14,GGAGACGAUACUAUUCAACGUACUACCUCA,0.581 ± 0.033
15,GCUCUGGAUACUAUAGCAACCUACUACCUCA,1.22 ± 0.12
16,GGAGUCGAUACUAUUCAACCUACUACCUCA,1.58 ± 0.096
17,GGAGUGGAUACUAUACAUCCUACUUCCUCA,0.0942 ± 0.013
18,GGAGUGGAUACUAUACAAGGUACUACCUCA,0.266 ± 0.021
19,GGAGUGGAUACUAUACAACCAACUACCACA,0.0934 ± 0.0094
